# No constants are given. Whether binding was seen depends on the method and setting. In cells and extracts the contact can be indirect. Some entries that bind do so weakly or less than the wild type. Sequences can lack the tags named with a protein.
# By UniProt entry, the sequences of proteins in these tests, tags left out. Where a name states a change or a piece, a line headed by the entry shows the natural chain unless it says otherwise. Residues count along the entry.
# UniProt Q3URK3: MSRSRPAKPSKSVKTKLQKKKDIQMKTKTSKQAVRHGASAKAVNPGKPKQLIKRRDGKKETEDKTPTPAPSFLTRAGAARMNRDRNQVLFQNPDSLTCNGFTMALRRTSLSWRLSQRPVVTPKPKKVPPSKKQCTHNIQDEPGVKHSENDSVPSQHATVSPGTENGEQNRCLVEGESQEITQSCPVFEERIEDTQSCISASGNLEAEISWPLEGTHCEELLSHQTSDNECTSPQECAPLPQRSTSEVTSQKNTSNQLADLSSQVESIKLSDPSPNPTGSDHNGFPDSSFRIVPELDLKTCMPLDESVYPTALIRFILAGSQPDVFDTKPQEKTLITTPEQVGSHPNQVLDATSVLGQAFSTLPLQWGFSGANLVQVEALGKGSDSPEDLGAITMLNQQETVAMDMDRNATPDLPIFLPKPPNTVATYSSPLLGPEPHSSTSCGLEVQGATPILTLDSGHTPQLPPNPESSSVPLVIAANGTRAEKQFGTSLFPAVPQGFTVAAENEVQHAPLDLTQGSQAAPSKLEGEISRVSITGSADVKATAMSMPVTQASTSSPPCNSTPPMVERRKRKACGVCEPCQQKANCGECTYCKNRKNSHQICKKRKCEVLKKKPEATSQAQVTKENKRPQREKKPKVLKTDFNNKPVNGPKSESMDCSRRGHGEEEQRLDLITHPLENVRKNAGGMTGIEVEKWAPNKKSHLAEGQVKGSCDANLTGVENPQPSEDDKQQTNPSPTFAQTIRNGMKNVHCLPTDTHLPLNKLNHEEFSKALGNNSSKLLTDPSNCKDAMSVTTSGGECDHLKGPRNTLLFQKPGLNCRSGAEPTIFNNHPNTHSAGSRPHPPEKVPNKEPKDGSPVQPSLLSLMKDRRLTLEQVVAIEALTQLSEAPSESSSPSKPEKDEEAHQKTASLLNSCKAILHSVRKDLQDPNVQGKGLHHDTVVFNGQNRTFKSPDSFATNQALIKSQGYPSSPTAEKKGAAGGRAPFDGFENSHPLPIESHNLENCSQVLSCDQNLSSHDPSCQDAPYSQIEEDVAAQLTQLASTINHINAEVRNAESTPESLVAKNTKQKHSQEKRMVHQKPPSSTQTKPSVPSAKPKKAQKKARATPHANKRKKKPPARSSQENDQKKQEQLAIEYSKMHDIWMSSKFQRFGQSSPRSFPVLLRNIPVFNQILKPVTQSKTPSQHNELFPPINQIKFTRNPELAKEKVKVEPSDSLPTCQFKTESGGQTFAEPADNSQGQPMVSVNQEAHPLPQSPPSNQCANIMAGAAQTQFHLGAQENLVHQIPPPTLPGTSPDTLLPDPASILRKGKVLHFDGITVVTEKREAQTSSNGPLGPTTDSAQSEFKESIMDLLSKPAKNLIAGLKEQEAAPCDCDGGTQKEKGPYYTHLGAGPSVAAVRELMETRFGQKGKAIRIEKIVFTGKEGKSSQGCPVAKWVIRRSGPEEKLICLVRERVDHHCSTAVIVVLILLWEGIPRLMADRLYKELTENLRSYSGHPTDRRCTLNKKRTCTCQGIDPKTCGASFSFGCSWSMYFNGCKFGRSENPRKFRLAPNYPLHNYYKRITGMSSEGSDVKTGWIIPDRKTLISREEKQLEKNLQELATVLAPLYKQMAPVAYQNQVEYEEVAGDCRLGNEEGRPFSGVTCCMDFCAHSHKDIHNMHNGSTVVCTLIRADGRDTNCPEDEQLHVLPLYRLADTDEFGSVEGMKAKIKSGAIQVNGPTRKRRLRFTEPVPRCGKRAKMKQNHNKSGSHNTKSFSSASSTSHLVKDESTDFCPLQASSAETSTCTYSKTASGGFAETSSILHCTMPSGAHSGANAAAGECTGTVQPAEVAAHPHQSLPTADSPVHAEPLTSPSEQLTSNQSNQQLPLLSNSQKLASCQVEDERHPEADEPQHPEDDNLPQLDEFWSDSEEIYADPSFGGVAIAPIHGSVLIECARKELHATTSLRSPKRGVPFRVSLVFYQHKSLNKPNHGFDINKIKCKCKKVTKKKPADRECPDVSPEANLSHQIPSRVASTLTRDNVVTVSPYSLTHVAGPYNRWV
# MBP-TET1 1–321: residues 1-321 of Q3URK3
# MBP-TET1 1–215: residues 1-215 of Q3URK3
# MBP-TET1 1–165: residues 1-165 of Q3URK3
# MBP-TET1 1–120: residues 1-120 of Q3URK3
# (Flag)3-TET1 734–2039: residues 734-2039 of Q3URK3
# B1: NANOG, endogenous in Tet1-(Flag)3 ESCs (protein, UniProt Q80Z64 1-305)
# chain: MSVGLPGPHSLPSSEEASNSGNASSMPAVFHPENYSCLQGSATEMLCTEAASPRPSSEDLPLQGSPDSSTSPKQKLSSPEADKGPEEEENKVLARKQKMRTVFSQAQLCALKDRFQKQKYLSLQQMQELSSILNLSYKQVKTWFQNQRMKCKRWQKNQWLKTSNGLIQKGSAPVEYPSIHCSYPQGYLVNASGSLSMWGSQTWTNPTWSSQTWTNPTWNNQTWTNPTWSSQAWTAQSWNGQPWNAAPLHNFGEDFLQPYVQLQQNFSASDLEVNLEATRESHAHFSTPQALELFLNYSVTPPGEI
# B2: (His)6-NANOG 1–160 (domain or fragment, UniProt Q80Z64 1-160)
# chain: MSVGLPGPHSLPSSEEASNSGNASSMPAVFHPENYSCLQGSATEMLCTEAASPRPSSEDLPLQGSPDSSTSPKQKLSSPEADKGPEEEENKVLARKQKMRTVFSQAQLCALKDRFQKQKYLSLQQMQELSSILNLSYKQVKTWFQNQRMKCKRWQKNQWL
# B3: (His)6-NANOG 91–246 (domain or fragment, UniProt Q80Z64 91-246)
# chain: KVLARKQKMRTVFSQAQLCALKDRFQKQKYLSLQQMQELSSILNLSYKQVKTWFQNQRMKCKRWQKNQWLKTSNGLIQKGSAPVEYPSIHCSYPQGYLVNASGSLSMWGSQTWTNPTWSSQTWTNPTWNNQTWTNPTWSSQAWTAQSWNGQPWNAA
# B4: (His)6-NANOG 194–305 (domain or fragment, UniProt Q80Z64 194-305)
# chain: SLSMWGSQTWTNPTWSSQTWTNPTWNNQTWTNPTWSSQAWTAQSWNGQPWNAAPLHNFGEDFLQPYVQLQQNFSASDLEVNLEATRESHAHFSTPQALELFLNYSVTPPGEI
# B5: (HA)3-NANOG ΔWR (protein, UniProt Q80Z64)
# chain: MSVGLPGPHSLPSSEEASNSGNASSMPAVFHPENYSCLQGSATEMLCTEAASPRPSSEDLPLQGSPDSSTSPKQKLSSPEADKGPEEEENKVLARKQKMRTVFSQAQLCALKDRFQKQKYLSLQQMQELSSILNLSYKQVKTWFQNQRMKCKRWQKNQWLKTSNGLIQKGSAPVEYPSIHCSYPQGYLVNASGSLSMWNAAPLHNFGEDFLQPYVQLQQNFSASDLEVNLEATRESHAHFSTPQALELFLNYSVTPPGEI
# B6: (His)6-NANOG (protein, UniProt Q80Z64 1-305)
# chain: B1 chain
# Tests used:
# [1] = biological target: TET1-(Flag)3, endogenous TET1 of Tet1-(Flag)3 ESCs (mouse (endogenous in mouse ESCs)) (UniProt Q3URK3); experiment: co-IP; nuclear protein extracts (Benzonase-treated) of Tet1-(Flag)3 ESCs, about 200 million cells; anti-Flag magnetic beads, 2 h at room temperature, three washes with PBS; NANOG found by immunoblot; E14Tg2a ESCs as control
# [2] = biological target: MBP-TET1 1–321 (mouse) (UniProt Q3URK3); experiment: pull-down; MBP-tagged constructs co-expressed with NANOG constructs in E. coli; bacterial extract (25 mM Tris–HCl pH 8.0, 200 mM NaCl) on amylose resin, one wash, elution with 10 mM maltose, immunoblot of the eluate
# [3] = biological target: (Flag)3-TET1 734–2039 (mouse) (UniProt Q3URK3); experiment: co-IP; (Flag)3-TET1 constructs and (HA)3-NANOG constructs expressed together in E14/T ESCs; Benzonase-treated nuclear protein extracts (350 mM KCl); TET1 immunoprecipitated by its Flag tag, immunoblot; for TET1(734–1169) also after phosphatase treatment of the extracts
# [4] = biological target: MBP-TET1 1–215 (mouse) (UniProt Q3URK3); experiment: pull-down; MBP-tagged constructs co-expressed with NANOG constructs in E. coli; bacterial extract (25 mM Tris–HCl pH 8.0, 200 mM NaCl) on amylose resin, one wash, elution with 10 mM maltose, immunoblot of the eluate
# [5] = biological target: MBP-TET1 1–120 (mouse) (UniProt Q3URK3); experiment: as above
# [6] = biological target: MBP-TET1 1–165 (mouse) (UniProt Q3URK3); experiment: as above
binder,measurement,setting,value
B1,binding,[1],binds
B2,binding,[2],binds
B3,binding,[2],binds
B4,binding,[2],binds
B5,binding,[3],binds
B6,binding,[4],binds
same,binding,[2],binds
same,binding,[5],binds
same,binding,[6],binds

# Source: paper PMC7763487 (2020)
